Measurements from paper PMC10726135.
This is one part of the list. At the low end of the ranking, values are background and their order means little. The protein was read in a cell extract, so binding may be indirect.

Each sequence was assayed against T1, HNF4alpha2 (COS-7 nuclear extract) (UniProt P41235) (assay: protein-binding microarray). Conditions: COS-7 nuclear extract on double-stranded Agilent 4x180k PBM; binding buffer, salt, pH and temperature not given; high values mean tight binding; double strand, one strand shown; sequences stand for … in …GCCTAGGGAGATTAGAGTATCGGTCGA.
T1 sequence: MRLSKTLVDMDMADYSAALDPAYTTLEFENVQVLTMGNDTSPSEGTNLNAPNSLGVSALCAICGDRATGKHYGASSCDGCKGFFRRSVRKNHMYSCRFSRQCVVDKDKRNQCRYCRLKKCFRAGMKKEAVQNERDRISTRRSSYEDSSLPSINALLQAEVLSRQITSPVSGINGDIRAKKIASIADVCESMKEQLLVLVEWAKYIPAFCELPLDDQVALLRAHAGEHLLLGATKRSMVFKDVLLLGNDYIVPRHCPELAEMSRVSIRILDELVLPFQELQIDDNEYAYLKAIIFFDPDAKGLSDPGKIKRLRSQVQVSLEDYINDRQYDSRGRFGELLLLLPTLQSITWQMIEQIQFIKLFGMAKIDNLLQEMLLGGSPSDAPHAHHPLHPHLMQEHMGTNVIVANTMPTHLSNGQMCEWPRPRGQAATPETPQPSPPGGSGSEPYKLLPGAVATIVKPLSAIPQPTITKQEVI

Row | Sequence | binding signal (log2 normalized intensity)
1 | TGTGTGTGTGTCTGTAGTTTTCGTTGTCTA | 2.41
2 | GGCCGGGGTGGTGGTTACCGGCAGAGGCTG | -0.105
3 | TTCAGGCAGGAATGCTGAACAATTGATTTA | -1.04
4 | ACACTGACATCATCGCAGAAAGCTCTTTGC | -0.994
5 | TAGAATGACCCCCTGGGCTCCAATCAGGAG | 2.76
6 | ATGAAAGTATCCAGCTCCTCTTCACACCAT | -1.13
7 | TGGGTGTCAGGGTTCTCAGACCACCAGCTG | -1.2
8 | TTTCATTGGAAAGGCAGAGGAAAGCCCTAG | -1.05
9 | ACAAGAGGCAAAGGCCACAGCTCAGATCAC | -1.15
10 | AGGGGTAGAAGCTGAGCAGCAATCAGCTCC | -1.06
11 | AGGCAGGGACTGAGGAATCTGGCTGTGCTG | -1.04
12 | CCCAGGCAATCTTCCAGTCCACAGTCCAGT | 0.72
13 | TGTTGCGTAATACAAAGGCAGCCATTGACG | -0.702
14 | TCGCTCCGCCGCTAGGTGGCGGGCTGGCTC | -1.16
15 | ACACATAAACCCTGACCCTCAAGGGTCTCC | 0.628
16 | TAAACAGCTGACAATAAATTCCAGGCTGCC | -1.16
17 | CCTTTTGAAGAAACCAACCCTGCCAAAGGT | 0.785
18 | AAGTACAGAGATGGCACAGAGGAGGGACGA | -1.14
19 | CTGGGTATTTCAAGAATGCAAAGCCCTGGC | -1.05
20 | TTACTTTTGTACACACAGCACTGCAAACAG | -1.24
21 | ATCAATCAATTTACCTCTGCTCCCCCTGCC | 4.1
22 | GGCAAAGGGCATGGGCAGCTTTGAAGACTC | -1.23
23 | GGGCACCGCCTCCACACCCCAGCCTGCCCT | 3.1
24 | AACTGAGGAGGACATACTCCTACCACCAAA | -1.22

Row | Sequence | binding signal (log2 normalized intensity)
25 | GTGTCCCTCTTATACTCTCTCTCTCTCGTT | 0.839
26 | GATGGAGATGGCCTGGAGGTACCTAGGGGA | -1.26
27 | AAAGGACATTGTCCATCACCTGGCTCTGAA | -1.01
28 | CCTGTCAGTTTATTTACTGTCCTCAAACTG | 1.46
29 | GCCTGGGGTAAAACCAAACTGCAGCTGCTG | -1.05
30 | TCCTAGGGTTAAAGTCTACAACCAGAACTT | 2.8
31 | CTTTGCTCTCTGAAATGAAGGTCAGCAAAT | 1.03
32 | AAGTTCAGTGAGATTAGGAAGTGTGCACAA | 1.17
33 | AGCCCCTTTGTCCATTATCTCACTTATTTG | 1.09
34 | TAAACCAGCCTAACAGGATTTTTGCTGAAG | -1.14
35 | GAACCAAGATCTGTGAAAGAAAAGTACTTT | 1.12
36 | AGAAGCCTCTGGACAAGGGAAGCGTCAATG | -1.11
37 | ACTGAGATGGGAGCAGTGCTCAGATAAGAT | -0.87
38 | GGCTGATAAGACACATTCCATGCTTATCAG | -0.713
39 | CCTTCCGACCACTGGCTGAACAGGGTCAGT | 1.99
40 | CGCTGGACTCTGCTCCTAAGGCAGGATTGG | 0.801
41 | AGTTAACTCACACACCCCAAAAGGTCAATC | 3.99
42 | ATATGAACTTTGGAAATGCAAACACCTACA | -1.13
43 | CACTTACAAGTGTACAAAGGTCACTTCTGT | 6.32
44 | TGGCACCTGAAGCTGCCCTTTGCACATGCC | 4.08
45 | TGAGGTCGGGGCCTGGTCTGCACTCCAGGA | -1.15
46 | CAAGTCCAGCGAGGTTATTTCACCCCAGCA | 2.46
47 | TACATGGCCTGCATGACTACATTCTTTGAA | -0.722
48 | GACCCCCTACATAGAGAGCAGTCTTGAGCG | 1.73

Row | Sequence | binding signal (log2 normalized intensity)
49 | TGTATTTCGGGGCACTGCTCCCTGCCCCTA | 2.42
50 | AACTCTATCATACTCAGCTAATCTAGAGAC | -0.844
51 | CAAGGTGGTGAAGATGTCCTGTAGAAAGCG | -1.12
52 | GTTTTGTAAACTCCCTTTGATGCGGTCAGA | 1.36
53 | TCCTTATCCTCATTGTGTGCAGACCTTCTC | 1.39
54 | GATAACACTGATAACATGAGGTAGAGGGAC | -1.26
55 | CCTTGGATTAAAGGAGAACTGAGTAGGAGA | -0.974
56 | GTCTTCCTCAAATTACAAAAGGAGTTGGGG | -1.08
57 | TCAAGAGAAATGTTATCTCAGTAGACTAAC | -1.08
58 | CATTAAGCTTAGCGTTATCAAACCAAATAT | -0.0208
59 | TGCAAGTTACCTTGGGGTCAAAGTACATCC | 8.65
60 | GAGACAACTGCAACAGGAGGACCTCTGGAT | -1.05
61 | GTATGGACTTTCTGATGTCAGAAAATGCAA | 0.478
62 | CTCAAGAATTGTCTAACCGCAGCAAGACAC | -1.14
63 | CTTTCAAGGCAGATTTCTGTCTTTGATCTG | 1.02
64 | CTGCTTTGTGGCATCAGGGTCCACAAGGGT | 2.4
65 | TCAAGATGTCTCAAGATATCTATATGTTTA | 0.723
66 | AGTTCAAACTCTGAAAGCACTAAGTTACCT | -1.16
67 | GGGCTAGTCCCTGAGTATTATCTTTTTAAT | 0.626
68 | CACAAAAAGGCTGTCACACTTGCCCTTTGC | 4.82
69 | CCATGACTGCTCCCTCTGCTCCCCTGGCCT | 2.57
70 | GAGGGGGGAGGGTCGGCAACGGTGATTACC | -0.962
71 | GGGCCTGCGAGGTTACAGGGTTCAACACGT | 2.06
72 | ATGGGAACTTCTCACCTTCAGATGCCATGT | 1.52
